Results as given in article PMC4480820, “Modafinil and its metabolites enhance the anticonvulsant action of classical antiepileptic drugs in the mouse maximal electroshock-induced seizure model” (Psychopharmacology, 2015).

Tested on: threshold for electroconvulsions in mice
Test: Maximal electroshock seizure threshold (MEST) test
Conditions: 30 min before electroconvulsions, ± S.E.M.

SMILES | CS50 (median current strength producing tonic hind limb extension in 50 % of animals) (6.25 mg kg^−1 i.p.) | CS50 (median current strength producing tonic hind limb extension in 50 % of animals) (12.5 mg kg^−1 i.p.) | CS50 (median current strength producing tonic hind limb extension in 50 % of animals) (25 mg kg^−1 i.p.) | CS50 (median current strength producing tonic hind limb extension in 50 % of animals) (50 mg kg^−1 i.p.) | CS50 (median current strength producing tonic hind limb extension in 50 % of animals) (50 mg kg^−1 i.p., listed as GBR 12909) | CS50 (median current strength producing tonic hind limb extension in 50 % of animals) (75 mg kg^−1 i.p.) | CS50 (median current strength producing tonic hind limb extension in 50 % of animals) (75 mg kg^−1 i.p., listed as sulfone metabolite) | CS50 (median current strength producing tonic hind limb extension in 50 % of animals) (75 mg kg^−1 i.p., listed as acid metabolite) | CS50 (median current strength producing tonic hind limb extension in 50 % of animals) (75 mg kg^−1 i.p., listed as modafinil)
Fc1ccc(C(OCCN2CCN(CCCc3ccccc3)CC2)c2ccc(F)cc2)cc1 [GBR] | 7.02 ± 0.48 mA | 7.52 ± 0.55 mA | 7.93 ± 0.62 mA | 9.12 ± 0.45 mA | 9.12 ± 0.45 mA | – | – | – | –
NC(=O)CS(=O)(=O)C(c1ccccc1)c1ccccc1 [SULF, diphenylmethylsufonylacetamide] | – | 6.50 ± 0.52 mA | 6.92 ± 0.40 mA | 7.53 ± 0.48 mA | – | 9.04 ± 0.47 mA | 9.04 ± 0.47 mA | – | –
O=C(O)CSC(c1ccccc1)c1ccccc1 [ACID, diphenylmethylthioacetic acid] | – | 6.42 ± 0.50 mA | 6.96 ± 0.48 mA | 7.67 ± 0.72 mA | – | 8.98 ± 0.45 mA | – | 8.98 ± 0.45 mA | –
NC(=O)C[S+]([O-])C(c1ccccc1)c1ccccc1 (centres unmarked) [MOD, diphenylmethylsulfinylacetamide] | – | 5.95 ± 0.44 mA | 6.29 ± 0.48 mA | 7.52 ± 0.54 mA | – | 8.29 ± 0.48 mA | – | – | 8.29 ± 0.48 mA
